# Data as given in PubChem BioAssay AID1347120 (National Center for Advancing Translational Sciences (NCATS), 2019).
# Among all 390,000 compounds or so, about 930 (0.24%) were called active. This list was built around the results that the source calls inconclusive (neither active nor inactive); the mix of calls is not that of the screen. Calls come from the whole dose curve; as a rule, active = well fitted activation curve with a large enough effect; inconclusive = small, poorly fitted or top-dose-only effect; inactive = no such curve, though single readings can be large or run the other way. A potency beside an inconclusive call is a rough fit, not a confirmed value.
# Assay: qHTS for Suppressors of FUS Proteinopathy: Primary screen using FUS-linked yeast assay; note: nearly all actives have a fitted effect of over 55% in size;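 for growth rescue (activation): plate controls were DMSO vehicle for no effect and reference control for full effect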
# Settings: S. cerevisiae FUS-expressing, OD600, 24 h; Potency: growth rescue; growth rescue (activation): at 76.6 µM (top of the series)
# In short: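 Absorbance at 600 nm, taken 24hr after compound addition, measured rescue of FUS-yeast growth at 30C. Induction used 2% galactose with seeding at OD 0.005. Controls: CP55940 from 92uM final, DMSO only.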
# Potency is the fitted concentration of half-maximal effect; tags give direction and shape of the fitted curve.
SMILES,Potency,growth rescue (activation)
COc1ccc(-c2ccc3c(c2)S(=O)(=O)c2cccc(C(=O)N4CCN(c5c(Cl)cncc5Cl)CC4)c2C3=O)cc1OC,"inconclusive: 20 µM [activator, partial curve, poor fit]",
Cc1ccc(CN2CCCCC(NC(=O)c3ccc4ccccc4c3)C2=O)cc1 (stereo not given),inactive,
c1ccc2cc3[nH]c(CNc4nc(N5CCOCC5)nc5c4ncn5-c4ccsc4)nc3cc2c1,active: 14.1 µM,
Cc1cccc(-c2noc(CN(C(=O)CCc3ccccc3)C(C)C)n2)c1,"inconclusive: 14.1 µM [activator, partial curve]",
N#CC1=C2SCN(C3CCCCC3)CN2C(=O)CC1c1c(F)cccc1Cl (stereo not given),"inconclusive: 17.8 µM [activator, partial curve, poor fit]",
Cc1ccc(NC(=O)CC2Nc3cc(C)c(C)cc3NC2=O)c(C)c1 (stereo not given),inactive,
O=C(Nc1ccccc1)C1=C[C@@H](c2csc3ccccc23)C[C@@H](OCc2ccc(CO)cc2)O1,"inconclusive: 28.2 µM [activator, single point]",
CCN1C(=O)[C@H]2[C@@H](c3ccc(-c4cccc(Cl)c4)c(OC)c3)N3CCCC[C@@]3(C(=O)OC)[C@H]2C1=O,"inconclusive: 31.6 µM [activator, single point]",
O=[N+]([O-])c1ccc(-c2nc(Nc3cccc(O)c3)c3ccccc3n2)cc1,inactive,
CC12CCC(=O)C=C1CCC1C2C(O)CC2(C)C(c3csc(N)n3)CCC12 (stereo not given),"inconclusive: 28.2 µM [activator, single point]",
Cc1ccc2c(c1)nnn2C1CCN(C(=O)c2ccccc2F)CC1,inactive,
Fc1ccc(Cn2nnc3ccccc32)cc1,,inconclusive: -58.3% [activator]
Cc1nn(-c2ccc(Cl)c(Cl)c2Cl)c(=O)c2ccccc12,inactive,
C=CCOC(=O)C1=C(C)NC(=O)NC1c1cn(-c2ccccc2)nc1-c1cccs1 (stereo not given),"inconclusive: 39.8 µM [activator, single point]",
Cc1ccc(-c2cc(-c3nnc(SCC(=O)N(C)CCC#N)n3N)c3ccccc3n2)cc1,inactive,
Oc1csc(Cc2nc(-c3ccc4ccccc4c3)cs2)n1,"inconclusive: 35.5 µM [activator, single point]",
C=CCN(C/C(=N\O)c1sc(C(=O)OCC)nc1C)c1cccc(Br)c1,"inconclusive: 25.1 µM [activator, single point]",
CCn1c2ccccc2c2cc(NC(=O)CSc3nnc(-c4ccccc4)n3Cc3ccco3)ccc21,"inconclusive: 22.4 µM [activator, single point]",
O=C(Cn1cc(S(=O)(=O)c2ccccc2)c(=O)c2cc3c(cc21)OCO3)Nc1ccc(Cl)cc1,"inconclusive: 35.5 µM [activator, single point]",
CCO[C@H]1OC(C(=O)NCc2ccccc2)=C[C@@H](c2ccc(C(F)(F)F)cc2)[C@@H]1CCCO,"inconclusive: 12.6 µM [activator, partial curve]",

SMILES,Potency,growth rescue (activation)
COc1ccc([C@H]2CC(=O)C=C(c3ccc(C)c([N+](=O)[O-])c3)C2)cc1,"inconclusive: 20 µM [activator, single point]",
Cn1cc(CN2CCC(C(=O)Nc3ccc(Oc4ccccc4F)cc3)CC2)cn1,inactive,
COc1ccc(NC(=O)CCc2nnc3n(Cc4ccccc4Cl)c(=O)c4ccccc4n23)cc1,inactive,
Cc1ccc(N2C(=O)N(Cc3cc(=O)n4ccccc4n3)c3ccccc3S2(=O)=O)cc1Cl,inactive,
CC(C)C[C@@H](CN(C)N=O)N(C[C@H](Cc1ccccc1)N(CCc1ccccc1)N=O)N=O,"inconclusive: 6.31 µM [activator, partial curve]",
CCOC(=O)c1cc2c(c(-c3cccc(C#Cc4ccc(OC)c(OC)c4)c3)n1)[C@@H](CCO)N(S(=O)C(C)(C)C)C2 (stereo not given in full),"inconclusive: 17.8 µM [activator, partial curve, poor fit]",
CCCc1c(-c2ccc(Cl)cc2)ncn1Cc1cccc(-c2ccccc2)c1,"inconclusive: 17.8 µM [activator, single point]",
CCOc1ccc(-n2nc(CO)c(C(=O)NCc3cccs3)n2)cc1,inactive,
Cc1ccc([N+](=O)[O-])cc1S(=O)(=O)N1CCn2cccc2C1c1ccccc1 (stereo not given),"inconclusive: 10 µM [activator, partial curve]",
COc1cccc(C(=O)Nc2nnc(-c3ccc(Cl)cc3)o2)c1,inactive,
COc1ccc(N2CCN(Cc3cccn3-c3nnc(N4CCN(C5CCCCC5)CC4)s3)CC2)cc1,inactive,
O=C(CSc1ncn[nH]1)N1N=C2/C(=C/c3ccco3)CCCC2C1c1ccco1 (stereo not given),"inconclusive: 15.8 µM [activator, partial curve, poor fit]",
CC1=C(C(=O)N2CCCCCC2)CC(CC(=O)NCCCN(C)C)C(=O)N1Cc1ccc(C(C)(C)C)cc1 (stereo not given),"inconclusive: 30.6 µM [activator, partial curve, poor fit]",
COc1cc(O)c(C(CC(=O)N2CCCC(C)C2)c2ccccc2)c(OC)c1 (stereo not given),"inconclusive: 17.8 µM [activator, partial curve]",
CCOC1=C2[C@@H](CN(S(=O)(=O)c3ccc(C)cc3)[C@H]2c2cccc3ccccc23)[C@H]2C(=O)N(c3ccccc3)C(=O)[C@H]2C1,"inconclusive: 6.31 µM [activator, full curve]",
C[C@H]1CN([C@@H](C)CO)C(=O)CCCn2nncc2CO[C@H]1CN(C)C(=O)c1ccncc1,inactive,
CCCCOc1ccc(/C=C/C(=O)N(CC)CC(=O)Nc2ccc3c(c2)OCCO3)cc1OC,"inconclusive: 31.6 µM [activator, partial curve]",
CC1CCCC(C)N1C(=O)Cn1cc(/C=C2/C(=O)Nc3ccccc32)c2ccccc21 (stereo not given),"inconclusive: 35.5 µM [activator, single point]",
CCn1c(SCC(=O)Nc2ccc(OC)cc2)nc2nc3c(cc2c1=O)CCCC3,"inconclusive: 22.4 µM [activator, partial curve]",
CCOC(=O)C1=CCN(S(=O)(=O)c2ccc(Cl)cc2)C1c1cccc(C)c1 (stereo not given),"inconclusive: 14.1 µM [activator, partial curve]",
